Sequences with one replicate were seen in a single cluster, so their values are uncertain.
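Note: ATP exposure 15 min at 22 °C before imaging.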

For the data set, the system named is ATP. Briefly: switch fluorescence ratio, 500 uM ATP over buffer (Cy3 cluster intensity, sum of 5 cycles each) (fold (ratio)); higher = stronger signal-on switching upon ATP binding; sequences stand for … in TCGTCGGCAGCGTCAGATGTGTATAAGAGACAGTTTTTTTTTTTTTTTTTTTTTTTTT…TC. The note with it: aptamer strand: ATP DNA aptamer (quencher-CACCTGGGGGAGTATTGCGGAGGAAGG + anchor), 100 nM annealed; ATP concentration: 500 uM; one replicate. In short, it runs like this:
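Clusters with intensities outside 100-1000 RFU were excluded. The remaining Cy3-labelled switching-strand clusters on a modified Illumina MiSeq flow-cell had been annealed to 100 nM quencher-labelled ATP aptamer and imaged in selection buffer, then after 15 min with 500 uM ATP at 22 °C, for five cycles separated by NaOH stripping and re-annealing. The fluorescence ratio, averaged per switch-domain sequence, is each cluster's summed target-cycle Cy3 intensity over its summed buffer-cycle Cy3 intensity.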
As for AACTACGAAT, the switch fluorescence ratio is 1.11.

Consider AGCTATTAAA, for which the switch fluorescence ratio amounted to 0.969.

AGGGATCGAT: the switch fluorescence ratio came out at 1.02.

In the case of TTTACTAAGA, the switch fluorescence ratio came out at 1.06.

Consider AAAGTGGACG, for which the switch fluorescence ratio turned out to be 1.08.

Take AAAATTCGAT: the switch fluorescence ratio is 1.02.

ATTCTCAGT: the switch fluorescence ratio was determined as 0.992.

As to AACATTACAT, the switch fluorescence ratio turned out to be 1.12.

As for CAAACTTAAC, the switch fluorescence ratio amounted to 1.07.

As for CGAAATGGTG, the switch fluorescence ratio came out at 0.943.

On to AAGAGTCAGC, for which the switch fluorescence ratio stood at 0.964.

As for GTACTATAGG, the switch fluorescence ratio turned out to be 0.975.

On to GCGGGGCGG, for which the switch fluorescence ratio turned out to be 1.04.

Consider TTTCCTAGTG, for which the switch fluorescence ratio was determined as 0.987.

Regarding ATATTACCTG, the switch fluorescence ratio amounted to 1.06.

As to AGGTCCGGCA, the switch fluorescence ratio was 1.04.

CAAATGACCT: the switch fluorescence ratio was 1.39.

For the sequence CGGGAAAGGT, the switch fluorescence ratio amounted to 0.968.

Consider TGAAGCTTAA, for which the switch fluorescence ratio was found to be 1.12.

With TTCGAATCAT, the switch fluorescence ratio is 1.01.

In the case of TATCGCGGGA, the switch fluorescence ratio is 1.03.

TAGCCTGTGT: the switch fluorescence ratio was 1.05.

Consider GATGACGTAA, for which the switch fluorescence ratio was 1.12.

Consider ATAGAGGAAA, for which the switch fluorescence ratio came out at 0.975.

Turning to AACGAGTAGA, the switch fluorescence ratio is 1.01.

Consider AGTGATTGAG, for which the switch fluorescence ratio amounted to 0.973.

On to TTTAAGGTAC, for which the switch fluorescence ratio is 1.19.

GTATAAGATG: the switch fluorescence ratio worked out at 0.968.

Consider TGGTGCACAC, for which the switch fluorescence ratio was determined as 1.05.

GCTTGTGTAT: the switch fluorescence ratio was 1.04.

Consider AAGATTCAGC, for which the switch fluorescence ratio was 0.986.

As for ACGGTCATCG, the switch fluorescence ratio came out at 0.971.

In the case of CCAGTCGGTG, the switch fluorescence ratio was 1.03.

Take AGATTATACT: the switch fluorescence ratio turned out to be 1.02.

Regarding CTGTACGCG, the switch fluorescence ratio worked out at 0.969.

As for CGCGCACTTT, the switch fluorescence ratio was 1.07.

Turning to TTTTGGCAAT, the switch fluorescence ratio turned out to be 0.955.

As for AATCACGCAA, the switch fluorescence ratio worked out at 4.39.

As to TACTCCGGAG, the switch fluorescence ratio came to 0.987.

In the case of GGGCAACACC, the switch fluorescence ratio stood at 1.02.

For the sequence CGGTGTTGGG, the switch fluorescence ratio stood at 1.02.

Consider CAGATATGTT, for which the switch fluorescence ratio worked out at 0.949.

Consider AAAAAGCTTG, for which the switch fluorescence ratio amounted to 1.03.

Regarding GCGCGCGTAC, the switch fluorescence ratio amounted to 1.21.

As to TCGGCCGTAG, the switch fluorescence ratio stood at 1.32.

As for CGTTTCCAAG, the switch fluorescence ratio was 0.977.

Turning to GGGAAAAGCT, the switch fluorescence ratio was 1.02.

Take ACTATACTAT: the switch fluorescence ratio came to 1.29.

For CTTATATTTG, the switch fluorescence ratio was 0.996.

GCGCAGATTT: the switch fluorescence ratio turned out to be 1.

On to CGAGGCTAGC, for which the switch fluorescence ratio was found to be 1.26.

Turning to ATAACCCCCA, the switch fluorescence ratio was 1.44.

As to GTCTCCAGGA, the switch fluorescence ratio was 1.01.

For the sequence GGTCCACAGC, the switch fluorescence ratio is 1.03.

GACATTTTAG: the switch fluorescence ratio is 1.05.

For the sequence TTCTCACAGA, the switch fluorescence ratio amounted to 1.68.

CGGACAGTAT: the switch fluorescence ratio came to 1.02.

For the sequence ACCTTCCTGT, the switch fluorescence ratio was found to be 2.57.

As for ATAAACCTCG, the switch fluorescence ratio was determined as 1.08.

For the sequence AGGGAATCCG, the switch fluorescence ratio amounted to 0.944.

As to CCACATCGCA, the switch fluorescence ratio is 1.68.

As to GCCTCTGCAC, the switch fluorescence ratio was found to be 3.5.

For the sequence GCAATCTTAA, the switch fluorescence ratio amounted to 1.1.

For the sequence ATACGCTTAA, the switch fluorescence ratio was found to be 1.14.

Consider GGTTGTGAAA, for which the switch fluorescence ratio turned out to be 1.05.

Regarding GTTGAGTGCT, the switch fluorescence ratio was 0.969.

For the sequence ACACGGGTGG, the switch fluorescence ratio was 1.07.

Take GTCGGGCCAT: the switch fluorescence ratio is 1.02.

ATGCTGCTCT: the switch fluorescence ratio is 1.12.

As for TGGAGACTTA, the switch fluorescence ratio amounted to 0.981.

For CAACTGGCTC, the switch fluorescence ratio is 0.955.

For the sequence TACGGTGACT, the switch fluorescence ratio worked out at 1.11.

In the case of AACGAGGACC, the switch fluorescence ratio was found to be 1.04.

In the case of TTAATATTTC, the switch fluorescence ratio was 0.989.

As to AAGGAGATTT, the switch fluorescence ratio is 0.978.

For TTACGAGCTT, the switch fluorescence ratio came out at 1.05.

For GCCCCAAATA, the switch fluorescence ratio is 0.942.

In the case of CATCTTGCAC, the switch fluorescence ratio came out at 1.37.

These data come from the supplement of paper PMC10126150.
